Data from the supplement of paper PMC10126150.
Sequences with one replicate were seen in a single cluster, so their values are uncertain.

Test system: ATP
Experiment: switch fluorescence ratio, 500 uM ATP over buffer (Cy3 cluster intensity, sum of 5 cycles each) (fold (ratio)); higher = stronger signal-on switching upon ATP binding; sequences stand for … in TCGTCGGCAGCGTCAGATGTGTATAAGAGACAGTTTTTTTTTTTTTTTTTTTTTTTTT…TC
Conditions: aptamer strand: ATP DNA aptamer (quencher-CACCTGGGGGAGTATTGCGGAGGAAGG + anchor), 100 nM annealed; ATP concentration: 500 uM; one replicate
Summary of the method: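 Imaging in selection buffer was followed by imaging after 15 min with 500 uM ATP at 22 °C, for Cy3-labelled switching-strand clusters annealed to 100 nM quencher-labelled ATP aptamer on a modified Illumina MiSeq flow-cell. Five of these buffer/ATP cycles ran, separated by NaOH stripping and re-annealing. The fluorescence ratio per cluster is summed target-cycle over summed buffer-cycle Cy3 intensity, averaged per switch-domain sequence; clusters outside 100-1000 RFU were removed.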
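Also: ATP exposure 15 min at 22 °C before imaging.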

Sequence	switch fluorescence ratio
ACCCACAGCA	1.41
GTCCTCGACC	0.974
CTAGGTATCG	0.976
TTCGGGTGGG	1.01
AGACGAAGTG	0.969
CTGGCTGGC	1.16
TGAGGCATCT	0.988
GTATCTATCC	1.03
TACACTTTGA	1
GTTAACGCCC	1.03
CTGTTATTAA	0.983
AATACCGGTT	1.02
GTGAAGCGTA	1
GACAGGTTGC	0.985
GTAGGATTG	0.999
CTGGGTATA	1.01
GGAGTATAAT	0.968
CATCCATACA	1.1
CAATCCGCCG	1.04
TTTGTGGACA	0.989
GCACGGCCG	0.975
ACCTAGAACA	1.02
AGCTCGAGAG	0.988

Sequence	switch fluorescence ratio
AGAACCTGAG	2.05
GGCTTGCTAC	1.05
TATATTGCAG	1.01
GGTAGAGTGT	1.01
AATGCCAGAA	0.944
TTAGTGAGT	0.966
CACGACCACT	1.36
TGCAGAGATC	0.995
GCACCGGGCC	1.05
GCCGGGGCGA	1.04
CGTGCTCTAG	1.01
GCGGCCTATT	0.973
GATTGCGATG	0.992
ATCTATCGTT	1.02
TGTTGCTCGG	0.924
TCGATGTTTT	1.05
TACGTCATAG	1.16
AGGGCGGCGC	0.96
ATTCGCTAGC	1.12
ACTACGCCTG	1.26
TCGTCCTTGT	0.993
TAATGTCACT	0.993
AGTGTGATGG	0.993

Sequence	switch fluorescence ratio
ATCCAACGTC	1.07
TGGTGTGTCT	0.972
AGCACGTGCA	1.01
GACTCGACGA	1.1
AGTGATGG	1.03
CCAGTGATC	1.06
AGCTGGATGG	0.978
CTCGAAAGGG	1.02
GAACTCTCGA	1.02
ACTTGTGTTT	0.978
CCTGTAGACA	1.03
CGGGTTACTG	0.984
AAGGTGTAAG	1.03
GGGGTGAACT	1.01
GCCCGCCTTC	1.01
CAGATCCTGC	1.02
CTTTAGGGGT	0.99
CCGCTAGAGT	2.81
TATGGGAG	0.944
AAGCCTGAAT	0.978
ATTTTCGATC	1.02
TGAAATGTCT	0.984
TGTCGTGCGA	0.976

Sequence	switch fluorescence ratio
GACGCATGCC	2.62
GAGCTAGCGG	1.01
CTCTCGGCG	1.03
GGATCAATAG	1.27
TTGGCTTTAC	1.16
AATATGTCC	1.01
ATTGTAAGCC	1.03
TGCCAACGAG	1.02
GTGTGATAAG	1.07
AGTCCATCTA	0.987
ACTGGGTATG	1
GGCTACGGCA	1.04
CCGTGAGCTT	3.87
GACGTCGGGT	0.949
CGAGGGGTCG	1.03
AATCATTAAA	0.975
TGACGTTGT	1.01
CAATCGCTCC	1.37
ATATCCGGTG	1.04
GCTACCGCTT	1.13
TAAGCATGCT	0.954
CAGCTAAATG	1.06
GTTAAAAAGT	1.01

Sequence	switch fluorescence ratio
TATCGGCAGG	0.961
ATGCCGAGGC	0.946
CCGCGGTTCC	2.58
AATACTCGTT	1.05
ACGTAGTCAA	1.95
TCCTGATTCA	1.04
TCACGATCGC	1.13
TAGTTTGCAA	1.14
ACCGGCCAGG	1.06
AGGATGATTT	1
ACATAACATT	1.15
CCTGTTAGTC	0.962
TTGTGCCTAG	1.03
CTGTAATCTA	1.04
GTTGGTTGAA	1.02
GCATGTAGGG	0.989
TTTACCACGT	0.998
GATGTGTATG	1
CTAGGTACA	1.1
CAAGAGTTCT	0.963
TAGGTCCATC	1.05
CACAGGGTTG	1.04
TTTCTCCGAC	4.82

Sequence	switch fluorescence ratio
ACGGGGACCA	1.06
CTCGAGGGTT	1.05
ATTTTGGGAG	0.983
CTTTATGCCA	0.96
TATGTATAGT	0.985
AAGACTGGGG	1.02
TGTTTATAAC	0.965
AGCTCGAAGG	1.04
AGTCCTAGGA	1.01
CAGCGGTCGT	1.06
GACGGGTCGA	1.02
GAAAATTAAT	1.04
GCTCATTATC	1.04
CTTCTATAAT	1.05
GTGGCGACGT	0.982
AACGGGGCC	1.04
TTGGAACCGC	1.21
GTAAACAACT	1.06
GCGTCATAGC	0.99
CTGATACTT	1.13
TTCTGGCTGA	0.956
ACTGCTCCAA	1.05
CGGTAAGTAA	1.01

Sequence	switch fluorescence ratio
CCAGGGTTAC	1.05
ACAAAGTATG	0.996
CGCCTTCTTG	1.01
TAAGGGTATC	1.11
CTAGCTGCCG	0.991
TTGGATATA	1.05
CTATGAGGTA	0.987
AGTACTTTTA	1.04
TTCCTCATCA	1.03
CGATTAGAGA	0.971
TATGGCCAAC	0.964
GCAGGATCCT	1.04
GCTACTTCGT	0.984
TAGATTCTTA	1.02
GTTGCGATAG	2.44
GGTAGGCACG	1.06
ATGACTGAGA	0.978
ATGATTCCCG	1.04
GTGGACCTGT	0.994
